According to the supplement of paper PMC7125110:
This sample is rich in variants without activity.

B1: glmS ribozyme (parent)
chain: AUAAAAGCGCCAGAACUACAGAAAUGUAGUUGACGAGGAGGAGGUUUAUCGAAUUUUCGGCGGAUGCCUCCAAA

Experiments:
Details in all cases: with glucosamine-6-phosphate
glucosamine-6-phosphate [1] = variants of: B1; assay: self-cleavage kobs at 40 uM GlcN6P; higher = faster cleavage; RNA array
Method in brief: (§1)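 The measurements used barcoded ribozyme variants on sequenced MiSeq chips, transcribed in situ by E. coli RNA polymerase and tracked at 37 °C with a hybridised Cy3 probe. Glucosamine-6-phosphate, 40 μM to 10 mM in HEPES/KCl/Mg(OAc)2 buffer, was flowed in while tiles were imaged over ~14 h. Baseline-normalised signals, also normalised to non-cleaving reference variants, gave per-tile medians that were fit to one- or two-exponential decays for kobs. kcat and KM resulted from weighted Michaelis–Menten fits across concentrations.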

glucosamine-6-phosphate [2] = variants of: B1; assay: self-cleavage kobs at 10000 uM GlcN6P; higher = faster cleavage; RNA array
Method in brief: as §1

glucosamine-6-phosphate [3] = variants of: B1; assay: self-cleavage kobs at 640 uM GlcN6P; higher = faster cleavage; RNA array
Method in brief: as §1

glucosamine-6-phosphate [4] = variants of: B1; assay: self-cleavage kobs at 160 uM GlcN6P; higher = faster cleavage; RNA array
Method in brief: as §1

glucosamine-6-phosphate [5] = variants of: B1; assay: self-cleavage kobs at 2500 uM GlcN6P; higher = faster cleavage; RNA array
Method in brief: as §1

C8A A12G A33C U65C
< 1e-05 s⁻¹: self-cleavage kobs at 40 uM GlcN6P (glucosamine-6-phosphate [1]) | self-cleavage kobs at 10000 uM GlcN6P (glucosamine-6-phosphate [2])

C8G G51A
< 1e-05 s⁻¹: self-cleavage kobs at 40 uM GlcN6P (glucosamine-6-phosphate [1]) | self-cleavage kobs at 640 uM GlcN6P (glucosamine-6-phosphate [3]) | self-cleavage kobs at 160 uM GlcN6P (glucosamine-6-phosphate [4]) | self-cleavage kobs at 2500 uM GlcN6P (glucosamine-6-phosphate [5]) | self-cleavage kobs at 10000 uM GlcN6P (glucosamine-6-phosphate [2])

G7C C71U
< 1e-05 s⁻¹: self-cleavage kobs at 40 uM GlcN6P (glucosamine-6-phosphate [1]) | self-cleavage kobs at 640 uM GlcN6P (glucosamine-6-phosphate [3]) | self-cleavage kobs at 160 uM GlcN6P (glucosamine-6-phosphate [4]) | self-cleavage kobs at 10000 uM GlcN6P (glucosamine-6-phosphate [2])

G7U U56A
< 1e-05 s⁻¹: self-cleavage kobs at 40 uM GlcN6P (glucosamine-6-phosphate [1]) | self-cleavage kobs at 640 uM GlcN6P (glucosamine-6-phosphate [3]) | self-cleavage kobs at 160 uM GlcN6P (glucosamine-6-phosphate [4]) | self-cleavage kobs at 10000 uM GlcN6P (glucosamine-6-phosphate [2])

G7U G9C
< 1e-05 s⁻¹: self-cleavage kobs at 40 uM GlcN6P (glucosamine-6-phosphate [1]) | self-cleavage kobs at 640 uM GlcN6P (glucosamine-6-phosphate [3]) | self-cleavage kobs at 160 uM GlcN6P (glucosamine-6-phosphate [4])

C8A U31C
< 1e-05 s⁻¹: self-cleavage kobs at 40 uM GlcN6P (glucosamine-6-phosphate [1]) | self-cleavage kobs at 640 uM GlcN6P (glucosamine-6-phosphate [3]) | self-cleavage kobs at 160 uM GlcN6P (glucosamine-6-phosphate [4]) | self-cleavage kobs at 2500 uM GlcN6P (glucosamine-6-phosphate [5]) | self-cleavage kobs at 10000 uM GlcN6P (glucosamine-6-phosphate [2])

G7U C11G G32A G40U
< 1e-05 s⁻¹: self-cleavage kobs at 40 uM GlcN6P (glucosamine-6-phosphate [1]) | self-cleavage kobs at 10000 uM GlcN6P (glucosamine-6-phosphate [2])

G7U G41C
< 1e-05 s⁻¹: self-cleavage kobs at 40 uM GlcN6P (glucosamine-6-phosphate [1]) | self-cleavage kobs at 640 uM GlcN6P (glucosamine-6-phosphate [3]) | self-cleavage kobs at 160 uM GlcN6P (glucosamine-6-phosphate [4]) | self-cleavage kobs at 2500 uM GlcN6P (glucosamine-6-phosphate [5]) | self-cleavage kobs at 10000 uM GlcN6P (glucosamine-6-phosphate [2])

G7C U31A
< 1e-05 s⁻¹: self-cleavage kobs at 40 uM GlcN6P (glucosamine-6-phosphate [1]) | self-cleavage kobs at 640 uM GlcN6P (glucosamine-6-phosphate [3]) | self-cleavage kobs at 2500 uM GlcN6P (glucosamine-6-phosphate [5]) | self-cleavage kobs at 10000 uM GlcN6P (glucosamine-6-phosphate [2])

C8G C34G
< 1e-05 s⁻¹: self-cleavage kobs at 40 uM GlcN6P (glucosamine-6-phosphate [1]) | self-cleavage kobs at 160 uM GlcN6P (glucosamine-6-phosphate [4]) | self-cleavage kobs at 2500 uM GlcN6P (glucosamine-6-phosphate [5]) | self-cleavage kobs at 10000 uM GlcN6P (glucosamine-6-phosphate [2])

G7U A36C
< 1e-05 s⁻¹: self-cleavage kobs at 40 uM GlcN6P (glucosamine-6-phosphate [1]) | self-cleavage kobs at 640 uM GlcN6P (glucosamine-6-phosphate [3]) | self-cleavage kobs at 2500 uM GlcN6P (glucosamine-6-phosphate [5]) | self-cleavage kobs at 10000 uM GlcN6P (glucosamine-6-phosphate [2])

G7C G29C G40C A64U C71G
< 1e-05 s⁻¹: self-cleavage kobs at 40 uM GlcN6P (glucosamine-6-phosphate [1])

G7C G40C U54G G62A
< 1e-05 s⁻¹: self-cleavage kobs at 40 uM GlcN6P (glucosamine-6-phosphate [1])

G7C U57G
< 1e-05 s⁻¹: self-cleavage kobs at 40 uM GlcN6P (glucosamine-6-phosphate [1]) | self-cleavage kobs at 640 uM GlcN6P (glucosamine-6-phosphate [3]) | self-cleavage kobs at 160 uM GlcN6P (glucosamine-6-phosphate [4]) | self-cleavage kobs at 2500 uM GlcN6P (glucosamine-6-phosphate [5]) | self-cleavage kobs at 10000 uM GlcN6P (glucosamine-6-phosphate [2])

G7U A14G G32C A39U
< 1e-05 s⁻¹: self-cleavage kobs at 40 uM GlcN6P (glucosamine-6-phosphate [1])

G7U G35C G44U
< 1e-05 s⁻¹: self-cleavage kobs at 40 uM GlcN6P (glucosamine-6-phosphate [1])

C8A G37U
< 1e-05 s⁻¹: self-cleavage kobs at 40 uM GlcN6P (glucosamine-6-phosphate [1]) | self-cleavage kobs at 10000 uM GlcN6P (glucosamine-6-phosphate [2])

G7C U47G
< 1e-05 s⁻¹: self-cleavage kobs at 40 uM GlcN6P (glucosamine-6-phosphate [1]) | self-cleavage kobs at 10000 uM GlcN6P (glucosamine-6-phosphate [2])

C8A A36C
< 1e-05 s⁻¹: self-cleavage kobs at 40 uM GlcN6P (glucosamine-6-phosphate [1]) | self-cleavage kobs at 160 uM GlcN6P (glucosamine-6-phosphate [4]) | self-cleavage kobs at 2500 uM GlcN6P (glucosamine-6-phosphate [5]) | self-cleavage kobs at 10000 uM GlcN6P (glucosamine-6-phosphate [2])

C8G U45G
< 1e-05 s⁻¹: self-cleavage kobs at 40 uM GlcN6P (glucosamine-6-phosphate [1]) | self-cleavage kobs at 640 uM GlcN6P (glucosamine-6-phosphate [3]) | self-cleavage kobs at 160 uM GlcN6P (glucosamine-6-phosphate [4]) | self-cleavage kobs at 2500 uM GlcN6P (glucosamine-6-phosphate [5]) | self-cleavage kobs at 10000 uM GlcN6P (glucosamine-6-phosphate [2])

C8G G35A U46G
< 1e-05 s⁻¹: self-cleavage kobs at 40 uM GlcN6P (glucosamine-6-phosphate [1]) | self-cleavage kobs at 2500 uM GlcN6P (glucosamine-6-phosphate [5]) | self-cleavage kobs at 10000 uM GlcN6P (glucosamine-6-phosphate [2])

G7U C16G C67G C70U
< 1e-05 s⁻¹: self-cleavage kobs at 40 uM GlcN6P (glucosamine-6-phosphate [1]) | self-cleavage kobs at 2500 uM GlcN6P (glucosamine-6-phosphate [5])

C8A G32U G41A G60U C61U U69G
< 1e-05 s⁻¹: self-cleavage kobs at 40 uM GlcN6P (glucosamine-6-phosphate [1]) | self-cleavage kobs at 640 uM GlcN6P (glucosamine-6-phosphate [3]) | self-cleavage kobs at 160 uM GlcN6P (glucosamine-6-phosphate [4]) | self-cleavage kobs at 2500 uM GlcN6P (glucosamine-6-phosphate [5]) | self-cleavage kobs at 10000 uM GlcN6P (glucosamine-6-phosphate [2])

C8A G40C
< 1e-05 s⁻¹: self-cleavage kobs at 40 uM GlcN6P (glucosamine-6-phosphate [1]) | self-cleavage kobs at 640 uM GlcN6P (glucosamine-6-phosphate [3]) | self-cleavage kobs at 160 uM GlcN6P (glucosamine-6-phosphate [4]) | self-cleavage kobs at 2500 uM GlcN6P (glucosamine-6-phosphate [5]) | self-cleavage kobs at 10000 uM GlcN6P (glucosamine-6-phosphate [2])

C8A G40A
< 1e-05 s⁻¹: self-cleavage kobs at 40 uM GlcN6P (glucosamine-6-phosphate [1]) | self-cleavage kobs at 640 uM GlcN6P (glucosamine-6-phosphate [3]) | self-cleavage kobs at 2500 uM GlcN6P (glucosamine-6-phosphate [5])

C8G A42G
< 1e-05 s⁻¹: self-cleavage kobs at 40 uM GlcN6P (glucosamine-6-phosphate [1]) | self-cleavage kobs at 640 uM GlcN6P (glucosamine-6-phosphate [3]) | self-cleavage kobs at 160 uM GlcN6P (glucosamine-6-phosphate [4])

C8G C71U
< 1e-05 s⁻¹: self-cleavage kobs at 40 uM GlcN6P (glucosamine-6-phosphate [1]) | self-cleavage kobs at 640 uM GlcN6P (glucosamine-6-phosphate [3]) | self-cleavage kobs at 160 uM GlcN6P (glucosamine-6-phosphate [4]) | self-cleavage kobs at 2500 uM GlcN6P (glucosamine-6-phosphate [5]) | self-cleavage kobs at 10000 uM GlcN6P (glucosamine-6-phosphate [2])

G7U A33U
< 1e-05 s⁻¹: self-cleavage kobs at 40 uM GlcN6P (glucosamine-6-phosphate [1]) | self-cleavage kobs at 2500 uM GlcN6P (glucosamine-6-phosphate [5])

C8G U65G
< 1e-05 s⁻¹: self-cleavage kobs at 40 uM GlcN6P (glucosamine-6-phosphate [1]) | self-cleavage kobs at 640 uM GlcN6P (glucosamine-6-phosphate [3]) | self-cleavage kobs at 160 uM GlcN6P (glucosamine-6-phosphate [4]) | self-cleavage kobs at 2500 uM GlcN6P (glucosamine-6-phosphate [5]) | self-cleavage kobs at 10000 uM GlcN6P (glucosamine-6-phosphate [2])

C8A C16U
< 1e-05 s⁻¹: self-cleavage kobs at 40 uM GlcN6P (glucosamine-6-phosphate [1]) | self-cleavage kobs at 640 uM GlcN6P (glucosamine-6-phosphate [3]) | self-cleavage kobs at 160 uM GlcN6P (glucosamine-6-phosphate [4]) | self-cleavage kobs at 2500 uM GlcN6P (glucosamine-6-phosphate [5]) | self-cleavage kobs at 10000 uM GlcN6P (glucosamine-6-phosphate [2])

C8G A39U
< 1e-05 s⁻¹: self-cleavage kobs at 40 uM GlcN6P (glucosamine-6-phosphate [1]) | self-cleavage kobs at 640 uM GlcN6P (glucosamine-6-phosphate [3]) | self-cleavage kobs at 160 uM GlcN6P (glucosamine-6-phosphate [4]) | self-cleavage kobs at 10000 uM GlcN6P (glucosamine-6-phosphate [2])

C8G A48G
< 1e-05 s⁻¹: self-cleavage kobs at 40 uM GlcN6P (glucosamine-6-phosphate [1]) | self-cleavage kobs at 640 uM GlcN6P (glucosamine-6-phosphate [3]) | self-cleavage kobs at 160 uM GlcN6P (glucosamine-6-phosphate [4]) | self-cleavage kobs at 2500 uM GlcN6P (glucosamine-6-phosphate [5])

G7C G37A
< 1e-05 s⁻¹: self-cleavage kobs at 40 uM GlcN6P (glucosamine-6-phosphate [1]) | self-cleavage kobs at 640 uM GlcN6P (glucosamine-6-phosphate [3]) | self-cleavage kobs at 160 uM GlcN6P (glucosamine-6-phosphate [4]) | self-cleavage kobs at 10000 uM GlcN6P (glucosamine-6-phosphate [2])

G7C U46A
< 1e-05 s⁻¹: self-cleavage kobs at 40 uM GlcN6P (glucosamine-6-phosphate [1]) | self-cleavage kobs at 640 uM GlcN6P (glucosamine-6-phosphate [3]) | self-cleavage kobs at 2500 uM GlcN6P (glucosamine-6-phosphate [5]) | self-cleavage kobs at 10000 uM GlcN6P (glucosamine-6-phosphate [2])

G7U A42C U45A U56C C70G
< 1e-05 s⁻¹: self-cleavage kobs at 40 uM GlcN6P (glucosamine-6-phosphate [1])

G7C G38U
< 1e-05 s⁻¹: self-cleavage kobs at 40 uM GlcN6P (glucosamine-6-phosphate [1]) | self-cleavage kobs at 640 uM GlcN6P (glucosamine-6-phosphate [3]) | self-cleavage kobs at 160 uM GlcN6P (glucosamine-6-phosphate [4]) | self-cleavage kobs at 10000 uM GlcN6P (glucosamine-6-phosphate [2])

C8A G44A
< 1e-05 s⁻¹: self-cleavage kobs at 40 uM GlcN6P (glucosamine-6-phosphate [1]) | self-cleavage kobs at 640 uM GlcN6P (glucosamine-6-phosphate [3]) | self-cleavage kobs at 160 uM GlcN6P (glucosamine-6-phosphate [4]) | self-cleavage kobs at 2500 uM GlcN6P (glucosamine-6-phosphate [5]) | self-cleavage kobs at 10000 uM GlcN6P (glucosamine-6-phosphate [2])

C8G U47A
< 1e-05 s⁻¹: self-cleavage kobs at 40 uM GlcN6P (glucosamine-6-phosphate [1]) | self-cleavage kobs at 640 uM GlcN6P (glucosamine-6-phosphate [3]) | self-cleavage kobs at 160 uM GlcN6P (glucosamine-6-phosphate [4]) | self-cleavage kobs at 2500 uM GlcN6P (glucosamine-6-phosphate [5]) | self-cleavage kobs at 10000 uM GlcN6P (glucosamine-6-phosphate [2])
